Laboratory results as given in the supplement of paper PMC11417369.
The list shows a part of the results.

Each sequence was assayed on PfHDP1 homeodomain (GST-tagged) (assay: gcPBM binding intensity (ln(normalized median fluorescence intensity)); higher = stronger DNA binding).
In short: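 After 1 h on an Agilent 4 × 180k array of primer-extended double-stranded 36-bp intergenic genomic probes and negative controls, bound GST-tagged P. falciparum DNA-binding domains were detected with Alexa488 anti-GST antibody and scanned at 488 nm. The domains had been expressed in E. coli, and binding took place in 1× PBS with 1% milk, 0.2 mg/ml BSA, 0.5% salmon testes DNA and 0.03% Triton X-100. Binding intensity is the highest Masliner-normalised natural-log median intensity across replicate spots of either probe orientation.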

In order of falling “gcPBM binding intensity (ln)” value:
1. TTATATTAGCCGATGGTGCATATATTTATAGGAAAA [GTGCAC_site9518]  9.88
2. ATAAATCAAATGCACACACACAAAAAAAAAAAAAAA [CACACA_site6221]  9.77
3. TGTGCGGAAATAAGTGCACACATAGATATATGTATT [CACACA_site9227]  9.46
4. AATATATGTATATCCACACACATATATATATATATA [CACACA_site1633]  9.44
5. TATATATTAAAACACACACACATATATATATATATA [CACACA_site3787]  9.43
6. AGAATATTTATATGATGTACTTATATATATATATAT [XGTACX_site3021]  8.98
7. ATTTTAATGGGACATGCATGGGACAAACTACAAATT [TGCATGCA_site853]  7.26
8. AAAAAAATTAAATGGGGTACAATAAGGGTCAAATAT [XGTACX_site8669]  7.1
9. CGCTCTCTTTAATATTGTACATATATATTATATATA [XGTACX_site7017]  7.03
10. ACATATTTATATGTCTGTACAAATATGCAATTTTTT [XGTACX_site5516]  6.91
11. AAAAAAAAAAATGGCTGTACATAATATTTAAATAGG [XGTACX_site4286]  6.89
12. TTTATAATTTTAAAATGTACAAGGAGGAAAAATTCT [XGTACX_site422]  6.87
13. TATTTTGTATTCATTTGTCACATATAATAGATAGGA [TGCATGCA_negctrl_site9]  6.82
14. AATTTGTAAAATAAGGTGCGTATAAAAAATTATATT [GTGCAC_site9676]  6.77
15. AATAAAAACTACATGTGTACATAATAAATACATATA [XGTACX_site755]  6.73
16. TACAAAAATATATAAACACACAAATATAATATATAT [CACACA_site2942]  6.72
17. ATGAATTGACCATATTGTACATATTTAGGACTTACC [XGTACX_site8072]  6.71
18. TTTTATTATATATATTGTACATATATTTTTATTTTT [XGTACX_site1564]  6.7
19. TGTTGCAAAACAAAAAAAAAAAAAAAAAATAATAAT [CACACA_negctrl_site1642]  6.66
20. ATAGATATAACATATGCATGTAAAATATAACCACTC [TGCATGCA_site60]  6.65
21. AATTTATAAATAATTAATTTGATAAATTATAAAGGG [GTGCAC_negctrl_site544]  6.64
22. AAAAAAAAAAAAAACACACATACATACATACATATA [CACACA_site4121]  6.57
23. TATATATAATATTTTTCACACACCATTTCCTTAAAC [CACACA_site1341]  6.56
24. ATATACATATTCTTGTGTACATAAAAATTTATATAT [XGTACX_site8726]  6.55
25. TAATAAATGACAAATTAACACACATATATTATATAT [CACACA_site9294]  6.53
26. TATATAAATATTCGTAGTACAATACAATTATAAGTA [XGTACX_site3068]  6.47
27. ATAAACATCGGTAGTACACACATTCATGTACTTGAT [CACACA_site3037]  6.44
28. TTATATTTTATATTTACACACATTTATATTTATAAA [CACACA_site203]  6.42
29. GTATATAATTTTTTTTTTTTTTTCATTCTTTTCCTT [CACACA_negctrl_site1780]  6.39
30. ATAATCCAAAAAAATCAAATAAAATAAAATAAAATA [CACACA_negctrl_site449]  6.37
31. AATAAATAGAAAGAGGTGCTACATTATATTATTTAT  6.34
32. ATAATTTTTTAGATCACACATATAAATAAATAAATA [CACACA_site5175]  6.34
33. ATTTAATAAAAAAAAAAAATATTGTAGAATATGATG [GTGCAC_negctrl_site195]  6.33
34. AAATATATGAAATATACACACTTCTTTGGTATTATT [CACACA_site4414]  6.29
35. TTTTTTTTTTTTTTTTGTACATAATAAATGTTCTTA [XGTACX_site6754]  6.28
36. CAAATGGTAAATGAAAGTACAAATTGTTTTGATTAA [XGTACX_site1536]  6.26
37. GGATAATCATACGAAGCATGCTGAATTTCCAAATAA [TGCATGCA_site1013]  6.25
38. ATATTTATAACTTGGTGTACTTTGAAAAAAAAAAAA [XGTACX_site5194]  6.23
39. TGTATCTATAATAAAACACACATTTTTAATGTGCTC [CACACA_site6788]  6.21
40. TGAACCAGATTTAGAAGTACTAAATATTACATACAT [XGTACX_site2437]  6.2
41. CAGAAATATTAATGCTGTACGGAATACATATATTTT [XGTACX_site539]  6.18
42. TTAGATAGATTTGTACGTACTTATTATAACGTATCA [XGTACX_site5067]  6.11
43. TTTTTTCTTTTCTTTTTATTTTATTTTGTTTTATTT [CACACA_negctrl_site799]  6.07
44. TAAAAATATTTAAACTGTACTATTTTATGTTAAATG [XGTACX_site6620]  5.93
